Assay results published in PubChem BioAssay AID1508642 (National Center for Advancing Translational Sciences (NCATS), 2021).
Screen size: about 43,000 compounds; about 200 (0.47%) were called active. Roughly 12% stayed inconclusive and do not appear here. Calls follow the shape of the dose curve; as a rule, active = well fitted cell-killing curve with a large enough effect; inconclusive = small, poorly fitted or top-dose-only effect, or effect the other way; inactive = flat fitted curve, though single readings scatter. The list shows a part of the results.

Assay: Cell viability qHTS assay in S16 Pmp22-F2sN cells; also: nearly all actives have a fitted effect of over 65% in size
Details: S16 Pmp22-F2sN Schwann cells (luciferase reporters placed in the Pmp22 gene) viability, CellTiter-Glo, 24 h; series mostly up to 57.5 µM; activity change, negative = cytotoxicity: at the top concentration
Summary of the method: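 Seed 500-1,000 S16 Pmp22-F2sN cells per well in phenol-red-free DMEM with 10% heat-inactivated FBS; pin-add 23 nL compound; incubate 24 h at 37C; add CellTiter-Glo, wait 15 min protected from light; read luminescence.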
% is scaled to controls: 0 for no effect and ±100 for the full control effect; potency is read from the fitted curve at half-maximal effect.

Structure (SMILES) | activity change, negative = cytotoxicity | Potency
COc1cc2c(=O)n(Cc3ccco3)c(=O)n(CC(=O)Nc3ccc(F)cc3)c2cc1OC | inactive: 2.67% | –
CCOc1cc2[nH]c(=O)n(Cc3ccc(C(=O)N4CCN(c5ccccc5)CC4)cc3)c(=O)c2cc1OCC | inactive: -20.9% | –
CSc1ncc(Cl)c(C(=O)Nc2cc(C(F)(F)F)ccc2Cl)n1 | inactive: -2.78% | –
O=C(CN1CCN(c2ccc(Cl)cc2)CC1)Nc1ccc(Cl)c(C(F)(F)F)c1 | inactive: 8.8% | –
Cc1ccc(CSc2oc(-c3ccco3)nc2S(=O)(=O)c2ccc(Br)cc2)cc1 | inactive: -7.43% | –
CC1CCN(C(=O)CSc2nc3c([nH]c4ccccc43)c(=O)n2-c2ccccc2)CC1 | inactive: 9.15% | –
Cc1ccc(CNC(=O)CCn2ccc3cc(S(=O)(=O)N4CCCC4)ccc32)cc1 | inactive: -0.483% | –
Cc1ccc(CNc2nc3c(S(=O)(=O)c4ccc(C)c(C)c4)nnn3c3ccc(Cl)cc23)cc1 | inactive: -7.46% | –
COc1ccccc1NC(=O)CSc1nnc(-c2nonc2NC(C)=O)n1-c1ccccc1 | inactive: -1.51% | –
CCc1ccc(NC(=O)Cn2c(=O)n(Cc3nc(C)no3)c(=O)c3cc4c(cc32)OCO4)cc1 | inactive: 2.83% | –
CCOc1ccc(-n2c(=O)c3c4c(sc3n(Cc3cc(=O)n5cc(Cl)ccc5n3)c2=O)CCC4)cc1 | inactive: 11.8% | –
CCOCCCNC(=O)c1cc2c(=O)n3ccccc3nc2s1 | inactive: 4% | –
O=C(/C=C\c1ccc2c(c1)OCO2)NC1CC(=O)N(c2ccc(F)cc2)C1 (stereo not given) | inactive: 11.6% | –
COc1ccc(N2CCN(C(=O)c3ccc(NC(=O)c4nsc5ccccc45)cc3)CC2)cc1 | inactive: -21.5% | –
CC1CCN(S(=O)(=O)c2cc(C(=O)NCCc3ccccc3)n(C)c2)CC1 | inactive: -0.328% | –
Cc1ccc(C)c(N2CCN(C(=O)c3cc4cc5ccc(C)cc5nc4s3)CC2)c1 | inactive: 14.9% | –
CC(C)(C)c1ccc(C(=O)Nc2cc(-c3ccccc3)nn2-c2ccccc2)cc1 | inactive: 25.7% | –
CCCN(CCC)CCNC(=O)Cn1ncc2c([nH]c3ccc(C)cc32)c1=O | inactive: 15.1% | –
COc1ccccc1Nc1nn2c(=O)c3ccc(C(=O)Nc4ccc(F)cc4)cc3nc2s1 | inactive: 20.9% | –
NC(=O)c1cc(S(=O)(=O)NCc2ccc(Br)cc2)cs1 | inactive: 10.1% | –
CCOC(=O)c1ccc(NC(=O)CCc2c(C)n(CC)c3cc(-c4ccccc4OC)nn3c2=O)cc1 | inactive: 0.927% | –
CCc1cccc(-n2c(=O)c3cccnc3n2CC(=O)NCc2ccccc2Cl)c1 | inactive: -2.62% | –
CCOC(=O)c1[nH]c(C)c(CCC(=O)NCc2ccc(C)cc2)c1C | inactive: 1.31% | –
Cc1ccc2c(CC(=O)Nc3c(C(=O)c4ccc(F)cc4)oc4ccccc34)coc2c1 | inactive: -2.89% | –

Structure (SMILES) | activity change, negative = cytotoxicity | Potency
CCN(c1ccccc1)S(=O)(=O)c1ccc(NC(=O)c2cc(=O)c3ccc(C)c(C)c3o2)cc1 | inactive: -5.57% | –
COc1ccc(CCNC(=O)CS(=O)Cc2nc(-c3ccc(C)cc3)oc2C)cc1OC (stereo not given) | inactive: 1.64% | –
O=C(CCSCc1ccc(Cl)cc1)N1CCN(c2ccccc2F)CC1 | inactive: 9.21% | –
CCC(=O)OCc1cnc(C)c2oc(=O)c(C(=O)Nc3ccc(CC)cc3)cc12 | inactive: 2.97% | –
CC(NC(=O)C1CCN(C(=O)N2CCOc3ccc(Cl)cc32)CC1)c1ccccc1 (stereo not given) | inactive: 0.256% | –
COc1ccc(-c2nc3c(c(SCc4cc(C)ccc4C)n2)Cc2c(CO)cnc(C)c2O3)cc1 | inactive: 0.0279% | –
COc1ccc(N2CCN(C(=O)c3nn(C)c4c3CS(=O)(=O)c3ccccc3-4)CC2)cc1 | inactive: -3.31% | –
COc1ccc(CNCc2ccc3c(c2)n(C)c(=O)n3C)cc1 | inactive: 4.34% | –
COc1cccc(C(=O)NC(=O)Nc2ccc(-n3nc(C(F)(F)F)cc3C(F)(F)F)cc2)c1 | inactive: 4.27% | –
CC(=O)c1ccc(NC(=O)C2=CC(c3cccs3)=NS(=O)(=O)N2C)cc1 | inactive: -2.31% | –
Cc1cc(C)n(-c2nnc(Nc3ccc(C(C)C)cc3)c3ccccc23)n1 | inactive: 0.243% | –
Cc1nc2c(c(C)nn2-c2ccccc2)c(C)c1CCC(=O)Nc1ccc(F)cc1 | inactive: -23.6% | –
COc1cc(Nc2nc(SCc3cccc(Cl)c3)nc3ccccc23)cc(OC)c1 | inactive: -21.6% | –
COc1ccc(NC(=O)C2CCCN(S(=O)(=O)c3ccc(Cl)cc3)C2)cc1 (stereo not given) | inactive: 8.96% | –
Cc1ccc(C)c(N2CCN(c3nccn4nc(-c5ccc(Br)cc5)cc34)CC2)c1 | inactive: 14.8% | –
Cc1ccc(Cl)cc1NC(=O)C(NS(=O)(=O)c1cccc2nsnc12)c1ccccc1 (stereo not given) | inactive: 2.39% | –
O=C(NCc1ccccc1F)C1CCN(Cc2cc3ccccc3n2Cc2cccc(Cl)c2)CC1 | inactive: -25.6% | –
Cn1c(=O)oc2cc(S(=O)(=O)CCC(=O)NCCc3ccccc3)ccc21 | inactive: 7.91% | –
CC(=O)c1cc(-c2ccc(F)cc2)n(CC(=O)NC(C)c2ccccc2)c1C (stereo not given) | inactive: 0.0696% | –
Cc1cccn2c(=O)c(/C=C(\C#N)c3nc4ccccc4s3)c(Oc3ccc(Br)cc3)nc12 | inactive: 4.77% | –
O=C(COCc1cc(-c2cccs2)on1)NCc1ccccc1Cl | inactive: -1.11% | –
Cc1nc2nc(NC(=O)c3ccc(F)cc3)[nH]n2c(=O)c1Cc1ccccc1 | inactive: 3.42% | –
Cc1ccc(Cc2c(C)nn(-c3nc(C)c(C(=O)N4CCCCC4C)s3)c2C)cc1 (stereo not given) | inactive: 9.48% | –
COc1ccc(NC(=O)C2CCCN(S(=O)(=O)c3c(C)n[nH]c3C)C2)cc1OC (stereo not given) | inactive: -0.804% | –

Structure (SMILES) | activity change, negative = cytotoxicity | Potency
COc1ccc(-c2cc(OC(=O)c3ccc(F)cc3)c3c(C)oc(C)c3c(=O)c2)cc1OC | inactive: -18.1% | –
CCC(=O)N1CCc2cc(S(=O)(=O)NC(C(=O)NCCc3ccc(Cl)cc3)C(C)C)ccc21 (stereo not given) | inactive: 3.36% | –
Cc1cccc(NC(=O)CN2c3ccccc3S(=O)(=O)c3ccccc32)c1C | inactive: -6.46% | –
Cc1ccc(CNC(=O)Cn2c(=O)n(-c3ccc(C)c(F)c3)c(=O)c3sc4ccccc4c32)cc1 | inactive: 7.25% | –
Cc1ccc(S(=O)(=O)N(CC(=O)N2CCc3ccccc3C2)c2ccc(C)c(C)c2)cc1 | inactive: -16.9% | –
Cn1nnnc1SCCNCc1ccc(OCc2ccccc2)cc1 | inactive: -2.48% | –
COC(=O)c1sccc1S(=O)(=O)N(CC(=O)NCc1ccccc1)c1ccc(C)c(C)c1 | inactive: 10.3% | –
CCOC(=O)c1c(C)c(-c2ccccc2)n(CC(=O)Nc2cccc(F)c2)c1C | inactive: 7.6% | –
CCOc1ccc(NC(=O)CCS(=O)(=O)c2ccc(Br)s2)cc1 | inactive: 6.19% | –
Cc1cccc(NC(=O)CN2C(=O)COc3ccc(S(=O)(=O)N4CCC(C)CC4)cc32)c1C | inactive: 1.47% | –
CCN(CC)CCCNC(=O)c1nn(-c2ccc(OC)c(Cl)c2)c(=O)c2c1c1ccccc1n2C | inactive: 17.8% | –
CCOC(=O)C1CCN(C(=O)C2CCN(c3nnc(C)c4c(C)n(-c5ccccc5)nc34)CC2)CC1 | inactive: 18.3% | –
CCCC(=O)Nc1cc(C(=O)NCc2ccc(OC)cc2)ccc1S(=O)(=O)c1ccc(Cl)cc1 | inactive: -9.67% | –
Cc1nn(CC(=O)NCc2ccccc2Cl)c(=O)c2cccn12 | inactive: 15.6% | –
CCOC(=O)c1ccccc1NC(=O)N1CCCN(S(=O)(=O)c2ccc3c(ccn3CC)c2)CC1 | inactive: -0.378% | –
Cc1cccc(-c2nc(CCNC(=O)c3ccccc3Br)cs2)c1 | inactive: -10.2% | –
O=C(Nc1cc(F)ccc1F)c1ccc2c(c1)nnn2C1CCCC1 | inactive: 2.18% | –
CCc1ccc(CNC(=O)C2CCCN(c3nn4cc(-c5ccc(F)cc5)nc4s3)C2)cc1 (stereo not given) | inactive: -4.35% | –
COC(=O)c1cc2oc3ccccc3c2n1Cc1c(C)cc(C)cc1C | inactive: -1.79% | –
COCCCNC(=O)CSc1nc(-c2ccc(OC)c(OC)c2)[nH]c1-c1ccc(F)cc1 | inactive: -2.89% | –
Cc1cc(C)c2c(=O)cc(C(=O)NCc3ccc(S(N)(=O)=O)cc3)oc2c1 | inactive: 9.46% | –
CCc1ccc(NC(=O)CCc2nnc3n(C)c(=O)c4sccc4n23)cc1 | inactive: 0.186% | –
Cc1ccc(C2=NC(c3ccccc3)=Nc3ccc(Cl)cc3N2)cc1 | inactive: 1.59% | –
Cc1nc2cccnc2n1-c1cccc(C(=O)NCCc2ccc(S(N)(=O)=O)cc2)c1 | inactive: 4.22% | –

Structure (SMILES) | activity change, negative = cytotoxicity | Potency
Cc1nn2c(=O)cc(COC(=O)COc3ccc(F)cc3)nc2s1 | inactive: 0.791% | –
COc1cc2ccccc2cc1C(=O)Nc1cccc(-c2nc3cc(C)ccc3o2)c1C | inactive: 5.89% | –
Cc1cccc(NC(=O)C2CCCN(S(=O)(=O)c3ccc(Br)s3)C2)c1 (stereo not given) | inactive: 5.58% | –
Cc1ccc(OCC(=O)Nc2ccc3nc(SCCOc4ccccc4)sc3c2)cc1 | inactive: 1.43% | –
CCOC(=O)Cn1c(=O)oc2cc(S(=O)(=O)N3CCC(C(=O)OCC)CC3)ccc21 | inactive: 4.79% | –
COc1ccc(NC(=O)Cn2nnc3sc4c(c3c2=O)CCCC4)cc1 | inactive: 4.02% | –
Cc1ccc(NC(=O)CSc2nnc(-c3ccc(Br)cc3)o2)c(C)c1 | inactive: 21.4% | –
Cc1cc(C)c(NC(=O)CSc2nc3ccncc3[nH]2)c(C)c1 | inactive: -2.48% | –
Cc1ccc(NC(=O)CN2C(=O)COc3ccc(S(=O)(=O)Nc4ccccc4)cc32)c(C)c1 | inactive: 2.6% | –
COc1ccc(CNC(=O)c2ccc3nc(C(C)C)oc3c2)cc1OC | – | active: 28.2 µM
CCOC(=O)C1CCCN(c2ncnc3c2nnn3C)C1 (stereo not given) | inactive: -2.56% | –
O=C(Nc1cccc(C(F)(F)F)c1)c1ccc2snnc2c1 | inactive: -2.32% | –
CC(=O)c1ccc(NC(=O)Cn2c(=O)nc(-c3ccccc3)c3cc(Cl)ccc32)cc1 | inactive: 7.03% | –
CCOc1ccc(-c2nnc(SCC(=O)c3ccc(Br)cc3)n2-c2ccccc2)cc1 | inactive: -2.29% | –
CCOc1ccc(CCNC(=O)c2cc3c(s2)-c2c(C)cccc2OC3)cc1 | inactive: 8.6% | –
O=C(CN1C(=O)CCc2cc(S(=O)(=O)N3CCOCC3)ccc21)NCc1ccc(Cl)cc1 | inactive: 5.37% | –
COCCn1c(SCC(=O)c2c[nH]c3ccccc23)nc2cc(C(=O)NC(C)C)ccc2c1=O | inactive: -20.5% | –
COCCCNC(=O)c1ccc(C)c(-n2c(C)nc3cccnc32)c1 | inactive: 9.48% | –
Cc1nc2ccn(Cc3cccnc3)c(=O)c2cc1C(=O)Nc1ccc(F)cc1F | inactive: -0.723% | –
O=S(=O)(Nc1ccc(F)cc1F)c1ccc(-n2cccn2)cc1 | inactive: 0.0149% | –
CCN(CC)c1ccc2cc(-c3nc(-c4ccccc4F)no3)c(=O)oc2c1 | inactive: 13.4% | –
COc1cc(NC(=O)NCCN2CCN(c3ccccc3)CC2)cc(OC)c1OC | inactive: 4.51% | –
COc1ccc(C(=O)NCCn2cc(SC(C)c3ccccc3)c3ccccc32)cc1OC (stereo not given) | inactive: -12.6% | –
